Data as given in ChEMBL document CHEMBL4888484, “Replenishing the malaria drug discovery pipeline: Screening and hit evaluation of the MMV Hit Generation Library 1 (HGL1) against asexual blood stage Plasmodium falciparum ,using a nano luciferase reporter read-out” (2022).
The whole screen tested about 150,000 compounds, of which about 540 (0.36%) showed an effect of 50% or more. Some of the results follow.

Tested on: Plasmodium falciparum
Assay: Primary screen in NF54 nanoGlo assay, in single point, at 2uM, 72h; a lower Z score goes with more inhibition
Format: functional, Erythrocyte
Details: timepoint 72 hour

In order of rising “% Inhibition” value:
1. CCc1nnsc1N(Cc1ccc(F)cc1)c1ccc(OC)c(OC)c1  -53%
2. CCOC1(OCC)[C@@H](c2ccc(Cl)cc2)C(C#N)(C#N)C1(OCC)OCC  -27%
3. Nc1nnc(-c2ccc3c(c2)CCC3)o1  -19%
4. O=C(N[C@@H]1c2ccccc2CC[C@@H]1O)c1cc(OCC(F)F)ccn1  -18%
5. CCCNC(=O)c1ccc(COc2ccc3c(c2)[C@H](c2cccc(F)c2)N(C(=O)C(C)C)CC3)o1  -16%
6. CC(C)Cc1nnc(NC(=O)[C@H](Cc2ccccc2)NC(=O)N2CCOCC2)s1  -16%
7. Cn1cc(NC(=O)C2=NNC(=O)CC2)cn1  -13%
8. O=C(NC[C@H]1O[C@@H](CO)[C@@H](O)[C@H]1N1CCOCC1)c1cccc(F)c1  -13%
9. CCN(C)C(C)(C)CNc1nc2c(c(=O)[nH]1)Cc1ccccc1OC2  -13%
10. N[C@H]1c2ccccc2C[C@@H]1NC(=O)c1ccc(-n2cnnn2)cc1  -13%
11. O=C(Cn1ncccc1=O)N1CCN(c2nccn3nc4c(c23)CCCC4)CC1  -13%
12. CC(C)NC(=O)CCc1cc2n(n1)CCN(C(=O)c1ccc3c(c1)CCO3)C2  -13%
13. O=C(NC[C@H]1CCCN1c1ccccc1)c1ccccc1Br  -13%
14. CCn1cc(C(=O)N[C@@H](C)c2nc(C)no2)c(=O)c2cc(F)c(F)c(F)c21  -13%
15. Cc1nn(C)cc1CN(C)CCn1cnnc1C  -11%
16. Cc1cc(Cl)cc(Cl)c1CNC(=O)N(C)CC1(C)COC1  -11%
17. CN(C)CCN1C(=O)N[C@@](CCc2ccccc2)(C2CCN(C(=O)CC3CCCCC3)CC2)C1=O  -10%
18. O=C(N1CCOCC1)C(F)(F)C(F)(F)OC(F)(F)F  -10%
19. O=C(NCc1ccc2c(c1)OCO2)[C@H]1CCCN(c2nnc3ccccn23)C1  -10%
20. CC[C@@](C)(CO)NC(=O)c1ccc(Cl)c(C)c1  -10%
21. Cc1noc(C2CCCN(C(=O)C(C)n3ccnc3)C2)n1 (stereo unspecified)  -9%
22. O=C(Nc1ccc(N2CCCN(Cc3ccco3)CC2)nc1)Nc1ccc(F)cc1F  -7%
23. Cc1ccc(-c2cc(C(=O)N3CCOCC[C@@H]3C)[nH]n2)cc1C  -7%
24. O=C(Cc1ccc2cn[nH]c2c1)N1CCOC[C@@H]1CC1CC1  -7%
25. CC(=O)CC(=O)Nc1ccccc1Br  -6%
26. Cn1ncc2c(N)nc(N3C[C@H]4CCC[C@@H](C4)C3)nc21  -6%
27. C=CC[C@]1(CO)CCCN(CCC(=O)NCc2ccc(F)cc2)C1  -6%
28. COc1cc(C(=O)N2CCCN(c3cc(=O)n(C)c(=O)n3C)CC2)cc(OC)c1OC  -5%
29. COC[C@H](C)Nc1ccc(-n2ccnn2)cc1  -5%
30. CC(C)c1cc(C(C)C)n(C2CCN(C(=O)c3cccs3)CC2)n1  -5%
31. CCN(C)c1nc(-c2ccc(F)cc2)ncc1C(=O)NCc1ccccn1  -5%
32. O=C(N[C@H]1CCCNC1=O)c1cc(COc2ccc(F)cc2F)[nH]n1  -4%
33. O=C(NCc1cccnc1)c1cc(-c2ccccc2F)nc2cc(-c3ccccc3)nn12  -4%
34. CC(C)C1CCN(Cc2nnc(-c3ccco3)o2)CC1  -4%
35. CC1CC1C(=O)C(C#N)C(=O)NCCc1ccccc1 (stereo unspecified)  -4%
36. c1ccc(-n2nncc2-c2nc(C3CC3)nn2-c2ccccn2)cc1  -4%
37. O=C(CC[C@]1(Cc2cccc3ccccc23)CCC(=O)N1)NCCCN1CCCC1=O  -4%
38. CC(C)(C)c1nsc(NC[C@]2(O)CCOC2)n1  -1%
39. CCN(CCOc1ccc(OC)cc1)C(=O)COC(C)C  0%
40. CCCc1cc(N2C[C@H](O)[C@@H](N3CCN(C)CC3)C2)nc(C)n1  0%
41. CN(C)c1ccnc(NC(=O)NC[C@@H]2C[C@H](c3ccccc3)CO2)n1  0%
42. COc1cc(OC)c2ncc(C#N)c(N(C)CC(N)=O)c2c1  1%
43. CCN=C(NCc1noc(C)n1)N(C)Cc1ccc(OC)c(F)c1  1%
44. O=C(c1ccc2c(c1)CCO2)N1CCC2(CC1)C[C@H](O)CNC2=O  1%
45. O=C1c2cccnc2CN1C1CCN(Cc2ccccc2)CC1  2%
46. COc1ccc(-c2nn3c(C(C)=O)c(-c4ccccc4)c4c3n2CCCC4)cc1  3%
47. O=C(c1cccc2c1OCO2)N1C[C@@H]2CCCN(C(=O)c3cccc4c3OCO4)[C@@H]2C1  4%
48. Cc1ncccc1CN[C@@H](C)c1ccc(N2CCCC2=O)cc1  5%
49. C[C@H]1CN(CCC(=O)N2CCc3ccccc3C2)C(C)(C)CO1  6%
50. CCN(C(=O)[C@H]1CCCN(S(=O)(=O)c2ccc3c(c2)NC(=O)CO3)C1)c1cccc(C)c1  11%
51. C[C@@H](NC(=O)Nc1cnn(C)c1)c1cccc(Cl)c1  12%
52. COCC1(C2CCC2)CN(C(=O)N[C@@H](C)c2ccncc2OC)C1  16%
53. COc1ccc(F)cc1S(=O)(=O)N1C[C@H]2CCCC(=O)N[C@H]2C1  31%

In order of falling Z score:
1. CCc1nnsc1N(Cc1ccc(F)cc1)c1ccc(OC)c(OC)c1  6.27
2. CCOC1(OCC)[C@@H](c2ccc(Cl)cc2)C(C#N)(C#N)C1(OCC)OCC  3.16
3. O=C(NC[C@H]1CCCN1c1ccccc1)c1ccccc1Br  2.53
4. Cn1cc(NC(=O)C2=NNC(=O)CC2)cn1  2.22
5. CCN(C)C(C)(C)CNc1nc2c(c(=O)[nH]1)Cc1ccccc1OC2  2.15
6. O=C(N[C@@H]1c2ccccc2CC[C@@H]1O)c1cc(OCC(F)F)ccn1  2.12
7. CCCNC(=O)c1ccc(COc2ccc3c(c2)[C@H](c2cccc(F)c2)N(C(=O)C(C)C)CC3)o1  2.02
8. CC(C)Cc1nnc(NC(=O)[C@H](Cc2ccccc2)NC(=O)N2CCOCC2)s1  2
9. CC(C)NC(=O)CCc1cc2n(n1)CCN(C(=O)c1ccc3c(c1)CCO3)C2  1.93
10. CN(C)CCN1C(=O)N[C@@](CCc2ccccc2)(C2CCN(C(=O)CC3CCCCC3)CC2)C1=O  1.87
11. Cc1cc(Cl)cc(Cl)c1CNC(=O)N(C)CC1(C)COC1  1.85
12. Nc1nnc(-c2ccc3c(c2)CCC3)o1  1.75
13. Cc1nn(C)cc1CN(C)CCn1cnnc1C  1.72
14. O=C(NC[C@H]1O[C@@H](CO)[C@@H](O)[C@H]1N1CCOCC1)c1cccc(F)c1  1.72
15. O=C(Cn1ncccc1=O)N1CCN(c2nccn3nc4c(c23)CCCC4)CC1  1.7
16. CCn1cc(C(=O)N[C@@H](C)c2nc(C)no2)c(=O)c2cc(F)c(F)c(F)c21  1.66
17. O=C(N1CCOCC1)C(F)(F)C(F)(F)OC(F)(F)F  1.39
18. Cc1ccc(-c2cc(C(=O)N3CCOCC[C@@H]3C)[nH]n2)cc1C  1.37
19. N[C@H]1c2ccccc2C[C@@H]1NC(=O)c1ccc(-n2cnnn2)cc1  1.22
20. O=C(Cc1ccc2cn[nH]c2c1)N1CCOC[C@@H]1CC1CC1  1.12
21. O=C(NCc1ccc2c(c1)OCO2)[C@H]1CCCN(c2nnc3ccccn23)C1  1.08
22. C=CC[C@]1(CO)CCCN(CCC(=O)NCc2ccc(F)cc2)C1  0.98
23. Cn1ncc2c(N)nc(N3C[C@H]4CCC[C@@H](C4)C3)nc21  0.95
24. Cc1noc(C2CCCN(C(=O)C(C)n3ccnc3)C2)n1 (stereo unspecified)  0.95
25. O=C(Nc1ccc(N2CCCN(Cc3ccco3)CC2)nc1)Nc1ccc(F)cc1F  0.92
26. CC[C@@](C)(CO)NC(=O)c1ccc(Cl)c(C)c1  0.87
27. COC[C@H](C)Nc1ccc(-n2ccnn2)cc1  0.85
28. CC(C)c1cc(C(C)C)n(C2CCN(C(=O)c3cccs3)CC2)n1  0.81
29. CC(=O)CC(=O)Nc1ccccc1Br  0.79
30. CCN(C)c1nc(-c2ccc(F)cc2)ncc1C(=O)NCc1ccccn1  0.75
31. COc1cc(C(=O)N2CCCN(c3cc(=O)n(C)c(=O)n3C)CC2)cc(OC)c1OC  0.71
32. O=C(CC[C@]1(Cc2cccc3ccccc23)CCC(=O)N1)NCCCN1CCCC1=O  0.71
33. c1ccc(-n2nncc2-c2nc(C3CC3)nn2-c2ccccn2)cc1  0.65
34. O=C(NCc1cccnc1)c1cc(-c2ccccc2F)nc2cc(-c3ccccc3)nn12  0.62
35. CC1CC1C(=O)C(C#N)C(=O)NCCc1ccccc1 (stereo unspecified)  0.61
36. O=C(N[C@H]1CCCNC1=O)c1cc(COc2ccc(F)cc2F)[nH]n1  0.56
37. CC(C)C1CCN(Cc2nnc(-c3ccco3)o2)CC1  0.41
38. CC(C)(C)c1nsc(NC[C@]2(O)CCOC2)n1  0.15
39. CCCc1cc(N2C[C@H](O)[C@@H](N3CCN(C)CC3)C2)nc(C)n1  0
40. CN(C)c1ccnc(NC(=O)NC[C@@H]2C[C@H](c3ccccc3)CO2)n1  0
41. CCN(CCOc1ccc(OC)cc1)C(=O)COC(C)C  -0.08
42. CCN=C(NCc1noc(C)n1)N(C)Cc1ccc(OC)c(F)c1  -0.08
43. COc1cc(OC)c2ncc(C#N)c(N(C)CC(N)=O)c2c1  -0.09
44. O=C(c1ccc2c(c1)CCO2)N1CCC2(CC1)C[C@H](O)CNC2=O  -0.15
45. O=C1c2cccnc2CN1C1CCN(Cc2ccccc2)CC1  -0.34
46. COc1ccc(-c2nn3c(C(C)=O)c(-c4ccccc4)c4c3n2CCCC4)cc1  -0.41
47. O=C(c1cccc2c1OCO2)N1C[C@@H]2CCCN(C(=O)c3cccc4c3OCO4)[C@@H]2C1  -0.68
48. Cc1ncccc1CN[C@@H](C)c1ccc(N2CCCC2=O)cc1  -0.68
49. C[C@H]1CN(CCC(=O)N2CCc3ccccc3C2)C(C)(C)CO1  -0.74
50. C[C@@H](NC(=O)Nc1cnn(C)c1)c1cccc(Cl)c1  -1.7
51. CCN(C(=O)[C@H]1CCCN(S(=O)(=O)c2ccc3c(c2)NC(=O)CO3)C1)c1cccc(C)c1  -1.75
52. COCC1(C2CCC2)CN(C(=O)N[C@@H](C)c2ccncc2OC)C1  -1.9
53. COc1ccc(F)cc1S(=O)(=O)N1C[C@H]2CCCC(=O)N[C@H]2C1  -3.57
